Test results from PubChem BioAssay AID686971 (National Center for Advancing Translational Sciences (NCATS), 2013).
The campaign covered roughly 360,000 compounds. About 7,500 (2.1%) were called active. The shares of active, inactive and inconclusive entries below differ from those in the screen. Calls come from the whole dose curve; as a rule, active = well fitted cell-killing curve with a large enough effect; inconclusive = small, poorly fitted or top-dose-only effect, or effect the other way, or another doubt; inactive = no such curve, though single readings can be large or run the other way. Potencies of inconclusive entries are left out as doubtful fits.

Assay: qHTS for induction of synthetic lethality in tumor cells producing 2HG: qHTS for the HT-1080-IDH1KD cell line;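 for activity, negative = toxicity: 0% = DMSO wells and -100% = cell-free medium wells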
Details: HT-1080 IDH1 knockdown viability, ATP luminescence, 48 h; activity, negative = toxicity: at 46.1 µM (top of the series) unless noted
How it was run: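 Luminescent ATP read-out (CellTiter-Glo, 10 min at room temperature) after 48 h compound exposure at 37 °C gave viability of IDH1-knockdown HT-1080 cells. Activity was normalised to DMSO and cell-free wells, then fitted as concentration-response curves.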
Potency is the fitted concentration of half-maximal effect; tags give direction and shape of the fitted curve.

**Q.** Which Potency does the source give for `O=C(COC(=O)c1cc[n+]([O-])cc1)Nc1ccc(Cl)cc1Cl` here?
**A.** Its Potency is “inactive”.

**Q.** For `O=C(CNC(=O)c1ccccc1Cl)N/N=C/c1ccc2c(c1)OCO2`, which Potency is on record?
**A.** Its Potency is inconclusive [cytotoxic, single point].

**Q.** For `O=c1nc(N/N=C/C=C/c2ccccc2)cn[nH]1`, which Potency is on record?
**A.** The Potency was “inactive”.

**Q.** For `Cc1nn2c(NCc3ccccn3)cc(C(C)C)nc2c1-c1ccccc1`, which Potency is on record?
**A.** Its Potency is inconclusive [cytotoxic, single point].

**Q.** With `COc1ccccc1OCc1ccc(C(=O)NN)o1` as the compound, how does the Potency read?
**A.** The Potency was “inactive”.

**Q.** Which Potency does the source give for `O=C(CCN1CCc2ccccc21)c1ccc2c(c1)OCCO2` here?
**A.** The Potency was inconclusive [cytotoxic, single point].

**Q.** For `COc1ccc(-c2c(C)nn(-c3ccccc3)c2N)cc1`, which Potency is on record?
**A.** Its Potency is inconclusive [rising, single point].

**Q.** With `CCOC(=O)c1c(CN2CCN(CCO)CC2)n(C)c2cc(Br)c(OC)cc12` as the compound, how does the Potency read?
**A.** The Potency was inconclusive [cytotoxic, single point].

**Q.** With `Cc1ccc(NCc2nnc(SCC(=O)N3CCCc4ccccc43)o2)c(C)c1` as the compound, how does the Potency read?
**A.** Its Potency is inconclusive [cytotoxic, single point].

**Q.** Which Potency does the source give for `COc1ccccc1CNC(=O)c1ccc2c(=O)n3c(nc2c1)CCCCC3` here?
**A.** The Potency was inconclusive [cytotoxic, single point].

**Q.** With `O=C(N/N=C/c1c(O)ccc2ccccc12)c1cccnc1` as the compound, how does the Potency read?
**A.** Its Potency is inconclusive [cytotoxic, partial curve, poor fit].

**Q.** Which Potency does the source give for `Cc1cccc(N(CC(=O)NCCc2ccccc2)C(=O)c2csnn2)c1` here?
**A.** Its Potency is “inactive”.

**Q.** For `COc1cc(OC)c(N(C)S(=O)(=O)c2cccc(C(=O)OCC(=O)N(C)C3CCCCC3)c2)cc1Cl`, which Potency is on record?
**A.** Its Potency is “inactive”.

**Q.** Which Potency does the source give for `COc1cccc(OCC(O)CN2CCC(CN3C(=O)c4cccc5cccc(c45)C3=O)CC2)c1` (stereo not given) here?
**A.** The Potency was active: 23.1 µM.

**Q.** With `CC(C)C[C@H]1CNC(=S)N1C[C@H]1CCCN1C[C@H](Cc1ccc(O)cc1)N1C[C@H](Cc2ccc(O)cc2)N(CC2CCCCC2)C1=S` as the compound, how does the Potency read?
**A.** Its Potency is active: 14.6 µM.

**Q.** For `CC(C)c1cccc(C(C)C)c1NC(=O)CCl`, which Potency is on record?
**A.** Its Potency is “inactive”.

**Q.** With `Cc1ccc(-n2nc(C)c(NC(=O)CCl)c2C)cc1C` as the compound, how does the Potency read?
**A.** Its Potency is inconclusive [cytotoxic, single point].

**Q.** For `Cc1ccn2c(-c3n[nH]c(=S)n3C)c(C)nc2c1`, which Potency is on record?
**A.** The Potency was “inactive”.

**Q.** With `CC(=O)c1ccc(N2CCN(CC(O)COC(c3ccccc3)c3ccccc3C)CC2)cc1` (stereo not given) as the compound, how does the Potency read?
**A.** The Potency was inconclusive [cytotoxic, single point].

**Q.** For `CCCCCCOC(=O)c1ccc(N)cc1`, which Potency is on record?
**A.** The Potency was inconclusive [cytotoxic, partial curve].

**Q.** With `OC(c1cccc(CN2CCCCC2)c1)c1ncc(-c2cccc(C(F)(F)F)c2)[nH]1` (stereo not given) as the compound, how does the Potency read?
**A.** Its Potency is inconclusive [cytotoxic, single point].

**Q.** For `Cc1ccc(NC(=O)Cn2nnc(C(=O)NCc3cccs3)c2N)c(C)c1`, which Potency is on record?
**A.** Its Potency is inconclusive [cytotoxic, partial curve].

**Q.** Which Potency does the source give for `Cc1cc(Br)c(S(=O)(=O)NCc2ccncc2)cc1C` here?
**A.** Its Potency is inconclusive [cytotoxic, partial curve, poor fit].

**Q.** Which Potency does the source give for `CC(=O)c1cccc(-c2ccnc3c2CC(C(=O)Nc2ccc(C(C)C)cc2)O3)c1` (stereo not given) here?
**A.** The Potency was inconclusive [cytotoxic, partial curve].

**Q.** With `COc1ccc(-c2sc3cc(OC)c(OC)cc3c2C#CCO)cc1` as the compound, how does the Potency read?
**A.** The Potency was inconclusive [cytotoxic, single point].

**Q.** For `C=CCNCCCOc1ccc(Cl)cc1C(C)(C)C`, which Potency is on record?
**A.** The Potency was inconclusive [cytotoxic, single point].

**Q.** Which Potency does the source give for `COc1ccc(C2C(=O)N(CCc3ccccc3)CC(=O)N2C2CCCCC2)cc1` (stereo not given) here?
**A.** Its Potency is inconclusive [cytotoxic, single point].

**Q.** With `CC(=O)c1cccc(NC(=O)Nc2ccc3c(c2)N(C)C(=O)CS3)c1` as the compound, how does the Potency read?
**A.** The Potency was inconclusive [cytotoxic, single point].

**Q.** Which Potency does the source give for `Cc1ccc(-c2nc(CCN3C(=O)c4ccccc4C3=O)cs2)cc1` here?
**A.** Its Potency is active: 10 µM.

**Q.** For `COc1ccc(OC)c(C2CC(c3c(-c4ccccc4)c4cc(Cl)ccc4[nH]c3=O)=NN2S(C)(=O)=O)c1` (stereo not given), which Potency is on record?
**A.** Its Potency is inconclusive [cytotoxic, single point].

**Q.** With `COc1cc(OC)c(C(=O)OC(C)C(=O)Nc2cc(C(F)(F)F)ccc2Cl)cc1OC` (stereo not given) as the compound, how does the Potency read?
**A.** Its Potency is inconclusive [cytotoxic, single point].

**Q.** For `O=C(Nc1ccccc1)Nc1ccc(C(=O)N2CCCC2)cc1`, which Potency is on record?
**A.** The Potency was active: 11.6 µM.

**Q.** With `O=C(NCc1cccs1)c1nc2c(nnn2Cc2ccc(F)cc2)c(=O)[nH]1` as the compound, how does the Potency read?
**A.** Its Potency is inconclusive [cytotoxic, single point].

**Q.** Which Potency does the source give for `Cc1ccc(/C=C/C(=O)c2ccccc2O)cc1` here?
**A.** The Potency was inconclusive [cytotoxic, single point].

**Q.** With `COCC1CCCN(Cc2cn(Cc3ccccc3)nc2-c2cc3ccccc3o2)C1` (stereo not given) as the compound, how does the Potency read?
**A.** Its Potency is active: 16.4 µM.

**Q.** For `COc1ccc(CNC(=O)c2cccc(S(=O)(=O)N3CCN(C)CC3)c2)cc1`, which activity, negative = toxicity is on record?
**A.** The activity, negative = toxicity was inconclusive: -3.18% [cytotoxic].

**Q.** For `CN1CCN(c2ccc([N+](=O)[O-])c(-n3nc(-c4ccccc4)c4ccccc4c3=O)c2)CC1`, which Potency is on record?
**A.** The Potency was inconclusive [cytotoxic, single point].

**Q.** With `CN(C)c1ccc(-c2ccnc3c2CC(C)(C(=O)NCc2ccco2)O3)cc1` (stereo not given) as the compound, how does the Potency read?
**A.** The Potency was inconclusive [cytotoxic, full curve].

**Q.** With `CCn1cc(CCCC(=O)NCc2ccccc2OC)c2ccccc21` as the compound, how does the Potency read?
**A.** The Potency was “inactive”.

**Q.** With `COc1ccc(C)cc1NC(=O)c1nnn(Cc2cccc(C(F)(F)F)c2)c1N` as the compound, how does the Potency read?
**A.** The Potency was inconclusive [cytotoxic, full curve].

**Q.** With `COc1cccc(CN2CCC(C(=O)Nc3ccc(-c4cccc(C)c4)cc3)CC2)c1O` as the compound, how does the Potency read?
**A.** The Potency was inconclusive [cytotoxic, single point].

**Q.** With `C=C(C)C(=O)NNc1ccccc1` as the compound, how does the Potency read?
**A.** The Potency was active: 20.6 µM.

**Q.** With `CC(OC(=O)CC1CCCC1)C(=O)Nc1ccc(S(N)(=O)=O)cc1` (stereo not given) as the compound, how does the Potency read?
**A.** Its Potency is “inactive”.

**Q.** With `O=C(CCS(=O)(=O)c1ccc(Br)cc1)NC1CCCCCC1` as the compound, how does the Potency read?
**A.** Its Potency is “inactive”.

**Q.** Which Potency does the source give for `COc1cccc(C2CNC3(CCCC(C)C3)c3[nH]c4ccccc4c32)c1OC` (stereo not given) here?
**A.** The Potency was inconclusive [cytotoxic, partial curve].
